Results from the antibiotic and cytotoxicity screens of Wong et al. (2023).
This is one part of the list.

These compounds were tested on S. aureus RN4220 (assay: growth inhibition call (relative growth <= 0.2)). Conditions: 50 µM.

Growth inhibition call, inactive:
COc1ccc(NC(=O)N(C)C[C@H]2OCc3ccccc3-c3c(n(C)c4ccccc34)C(=O)N([C@H](C)CO)C[C@H]2C)c(OC)c1
Cc1noc(C)c1NC(=O)Nc1ccc2c(c1)C(=O)N([C@H](C)CO)C[C@H](C)[C@H](CN(C)C(=O)Nc1c(C)noc1C)OCCCC[C@@H](C)O2
O=C(CN1CCOCC1)NCC[C@H]1CC[C@H](NC(=O)c2ccc3c(c2)OCO3)[C@H](CO)O1
CC(C)NC(=O)N(C)C[C@H]1Oc2cc(C#Cc3ccc(F)cc3)ccc2S(=O)(=O)N([C@@H](C)CO)C[C@@H]1C
COc1ccc(S(=O)(=O)N(C)C[C@@H]2Oc3c(NC(=O)c4cc(C)nn4C)cccc3C(=O)N([C@@H](C)CO)C[C@H]2C)cc1
Cc1ccc(S(=O)(=O)N(C)C[C@H]2OCCCC[C@H](C)Oc3ccc(NC(=O)CCCCCC(=O)Nc4ccccc4N)cc3C(=O)N([C@@H](C)CO)C[C@@H]2C)cc1
C[C@@H]1CN([C@@H](C)CO)C(=O)c2c(c3ccccc3n2C)-c2ccccc2CO[C@@H]1CN(C)Cc1cccc(C(=O)O)c1
C[C@@H]1CCCCO[C@H](CN(C)S(=O)(=O)c2ccc(F)cc2)[C@@H](C)CN([C@H](C)CO)C(=O)c2cc(NC(=O)Cc3ccccc3)ccc2O1
COc1nn(C)cc1C(=O)NC1=NCCS1
Cc1noc(C)c1S(=O)(=O)Nc1ccc2c(c1)CC(=O)N([C@@H](C)CO)C[C@H](C)[C@@H](CN(C)S(C)(=O)=O)O2
COc1ccc(S(=O)(=O)N(C)C[C@H]2Oc3c(NS(=O)(=O)c4c(C)noc4C)cccc3C(=O)N([C@@H](C)CO)C[C@@H]2C)cc1
C[C@@H]1CCCCO[C@H](CN(C)C(=O)Nc2cccc3ccccc23)[C@H](C)CN([C@H](C)CO)C(=O)c2cc(NS(=O)(=O)c3ccc(Cl)cc3)ccc2O1
COCC(=O)N(C)C[C@H]1Oc2cc(-c3ccc(OC)cc3)ccc2S(=O)(=O)N([C@@H](C)CO)C[C@@H]1C
